# B1: GLP-1RA/FGF21 Fc fusion protein SEQ ID NO: 206 (Fc fusion)
# chain: HGEGTFTSDLSKQLEKRLVRLFYEWLLNGGHSSQKPPPKGGGGGGGSGGGGSGGGGSA[… human IgG4 Fc with changes …]GGGSGSAHPIPDSSPLLQFGGQVRQRYLYTDDACQTEAHLEIREDGTVGGAADQSPESLLQLKALKPGVIQILGVKTSRFLCQRPDGALYGSLHFDPEACSFRELLLEDGYNVYQSEAHGLPLHLPGCKSPHRDPAPRGPARFLPLPGLPPAPPEPPGILAPQPPDVGSSDPLSMVGSQGRSPSYAS
# B2: GLP-1RA/FGF21 Fc fusion protein SEQ ID NO: 207 (Fc fusion)
# chain: HGEGTFTSDLSKQLEKRLVRLFYEWLKNGGHSSGKPPPKGGGGGGGSGGGGSGGGGSA[… human IgG4 Fc with changes …]GGGSGSAHPIPDSSPLLQFGGQVRQRYLYTDDACQTEAHLEIREDGTVGGAADQSPESLLQLKALKPGVIQILGVKTSRFLCQRPDGALYGSLHFDPEACSFRELLLEDGYNVYQSEAHGLPLHLPGCKSPHRDPAPRGPARFLPLPGLPPAPPEPPGILAPQPPDVGSSDPLSMVGSQGRSPSYAS
# B3: GLP-1RA/FGF21 Fc fusion protein SEQ ID NO: 208 (Fc fusion)
# chain: GHGEGTFTSDKSKQLEEEAVRLFIEWLKAGGPKKIRYSGGGGGGGSGGGGSGGGGSA[… human IgG4 Fc with changes …]GGGSGSAHPIPDSSPLLQFGGQVRQRYLYTDDACQTEAHLEIREDGTVGGAADQSPESLLQLKALKPGVIQILGVKTSRFLCQRPDGALYGSLHFDPEACSFRELLLEDGYNVYQSEAHGLPLHLCGNKSPHRDPAPRGPARFLPLPGLPPAPPEPPGILAPQPPDVGSSDPLSMVYPSQGRSPSYAS
# B4: GLP-1RA/FGF21 Fc fusion protein SEQ ID NO: 211 (Fc fusion)
# chain: GHGEGTFTSDLSKQLEEEAVRLFIEWLKAGGPKKIRYSGGGGGGGSGGGGSGGGGSA[… human IgG4 Fc with changes …]GGGSGSAHPIPDSSPLLQFGGQVRQRYLYTDDACQTEAHLEIREDGTVGGAADQSPESLLQLKALKPGVIQILGVKTSRFLCQRPDGALYGSLHFDPEACSFRELLLEDGYNVYQSEAHGLPLHLPGCKSPHRDPAPRGPARFLPLPGLPPAPPEPPGILAPQPPDVGSSDPLSMVGSQGRSPSYAS
# B5: GLP-1RA/FGF21 Fc fusion protein SEQ ID NO: 212 (Fc fusion)
# chain: GHGEGTFTSDLSKQLEEEAVQLFIEWLKAGGPKKIRYSGGGGGGGSGGGGSGGGGSA[… human IgG4 Fc with changes …]GGGSGSAHPIPDSSPLLQFGGQVRQRYLYTDDACQTEAHLEIREDGTVGGAADQSPESLLQLKALKPGVIQILGVKTSRFLCQRPDGALYGSLHFDPEACSFRELLLEDGYNVYQSEAHGLPLHLPGCKSPHRDPAPRGPARFLPLPGLPPAPPEPPGILAPQPPDVGSSDPLSMVGSQGRSPSYAS
# B6: GLP-1RA/FGF21 Fc fusion protein SEQ ID NO: 229 (Fc fusion)
# chain: HGEGTFTSDKSKQLEKRLVRLFYEWLIAGGHSSGKPPPKGGGGGGGSGGGGSGGGGSA[… human IgG1 Fc with changes …]GGGSGSAHPIPDSSPLLQFGGQVRQRYLYTDDACQTEAHLEIREDGTVGGAADQSPESLLQLKALKPGVIQILGVKTSRFLCQRPDGALYGSLHFDPEACSFRELLLEDGYNVYQSEAHGLPLHLPGCKSPHRDPAPRGPARFLPLPGLPPAPPEPPGILAPQPPDVGSSDPLSMVYPSQGRSPSYAS
# B7: GLP-1RA/FGF21 Fc fusion protein SEQ ID NO: 25 (Fc fusion)
# chain: HGEGTFTSDLSILLDEEAVRLFIEWLLATGPVSGAPPPSGGGGGGGSGGGGSGGGGSA[… human IgG4 Fc with changes …]GGGSGSAHPIPDSSPLLQFGGQVRQRYLYTDDACQTEAHLEIREDGTVGGAADQSPESLLQLKALKPGVIQILGVKTSRFLCQRPDGALYGSLHFDPEACSFRELLLEDGYNVYQSEAHGLPLHLCGNKSPHRDPAPRGPARFLPLPGLPPAPPEPPGILAPQPPDVGSSDPLSMVGSQGRSPSYAS
# B8: GLP-1RA/FGF21 Fc fusion protein SEQ ID NO: 26 (Fc fusion)
# chain: HGEGTFTSDLSILLDEEAVRLFIEWLLATGPVSGAPPPSGGGGGGGSGGGGSGGGGSA[… human IgG4 Fc with changes …]GGGSGSAHPIPDSSPLLQFGGQVRQRYLYTDDACQTEAHLEIREDGTVGGAADQSPESLLQLKALKPGVIQILGVKTSRFLCQRPDGALYGSLHFDPEACSFRELLLEDGYNVYQSEAHGLPLHLPGCKSPHRDPAPRGPARFLPLPGLPPAPPEPPGILAPQPPDVGSSDPLSMVGSQGRSPSYAS
# B9: GLP-1RA/FGF21 Fc fusion protein SEQ ID NO: 27 (Fc fusion)
# chain: HGEGTFTSDLSILLDEEAVRLFIEWLLATGPVSGAPPPSGGGGGGGSGGGGSGGGGSA[… human IgG4 Fc with changes …]GGGSGSAHPIPDSSPLLQFGGQVRQRYLYTDDACQTEAHLEIREDGTVGGAADQSPESLLQLKALKPGVIQILGVKTSRFLCQRPDGALYGSLHFDPEACSFRELLLEDGYNVYQSEAHGLPLHLPGCKSPHRDPAPRGPARFLPLPGLPPAPPEPPGILAPQPPDVGSSDPLSMVYPSQGRSPSYAS
# B10: GLP-1RA/FGF21 Fc fusion protein SEQ ID NO: 28 (Fc fusion)
# chain: HGEGTFTSDLSILLDEEAVREFIEWLLATGPVSGAPPPSGGGGGGGSGGGGSGGGGSA[… human IgG4 Fc with changes …]GGGSGSAHPIPDSSPLLQFGGQVRQRYLYTDDACQTEAHLEIREDGTVGGAADQSPESLLQLKALKPGVIQILGVKTSRFLCQRPDGALYGSLHFDPEACSFRELLLEDGYNVYQSEAHGLPLHLCGNKSPHRDPAPRGPARFLPLPGLPPAPPEPPGILAPQPPDVGSSDPLSMVGSQGRSPSYAS
# Biological target: human glucagon-like peptide-1 (GLP-1) receptor (human, UniProt P43220 24-463)
# Assay: cell-based or functional assay
row,Binder,HTRF cAMP EC50
1,B1,0.107 nM
2,B2,0.147 nM
3,B3,0.17 nM
4,B4,0.0588 nM
5,B5,0.113 nM
6,B6,0.0629 nM
7,B7,0.0459 nM
8,B8,0.0401 nM
9,B9,0.0375 nM
10,B10,0.0329 nM

# Biological target: T1, Mouse GLP-1R (mouse, UniProt O35659 22-463)
# T1 sequence (looked up): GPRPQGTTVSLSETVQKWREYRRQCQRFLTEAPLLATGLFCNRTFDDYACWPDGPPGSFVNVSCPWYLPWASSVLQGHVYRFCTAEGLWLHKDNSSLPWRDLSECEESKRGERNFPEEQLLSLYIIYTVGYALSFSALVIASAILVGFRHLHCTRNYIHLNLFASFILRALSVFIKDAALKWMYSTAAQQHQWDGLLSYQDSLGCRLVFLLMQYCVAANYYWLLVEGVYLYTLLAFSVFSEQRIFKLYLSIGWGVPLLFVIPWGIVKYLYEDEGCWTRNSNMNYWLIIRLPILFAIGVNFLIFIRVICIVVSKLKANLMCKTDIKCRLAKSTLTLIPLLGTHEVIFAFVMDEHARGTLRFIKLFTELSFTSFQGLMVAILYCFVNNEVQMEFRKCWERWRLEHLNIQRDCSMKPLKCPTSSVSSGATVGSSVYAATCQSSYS
# Assay: cell-based or functional assay
row,Binder,HTRF cAMP EC50
1,B1,0.0937 nM
2,B2,0.128 nM
3,B3,0.128 nM
4,B4,0.152 nM
5,B5,0.287 nM
6,B6,0.47 nM
7,B7,0.101 nM
8,B8,0.0953 nM
9,B9,0.091 nM
10,B10,0.107 nM

# Biological target: Monkey GLP-1R (monkey)
# Assay: cell-based or functional assay
row,Binder,HTRF cAMP EC50
1,B1,0.151 nM
2,B2,0.189 nM
3,B3,0.255 nM
4,B4,0.0685 nM
5,B5,0.153 nM
6,B6,0.0821 nM
7,B7,0.0813 nM
8,B8,0.0733 nM
9,B9,0.0751 nM
10,B10,0.0687 nM

# Reference: patent US20230250147A1 (Sanofi, published 2023)
